The chains are these.
B1: CPEB3 Ribozyme (parent)
chain: UAACAGGGGGCCACAGCAGAAGCGUUCACGUCGCAGCCCCUGUCAGAUUCUGGUGAAUCUGCGAAUUCUGCUGUAUAUCUC

The source gives no read counts; variants with many changes may rest on few reads.

Self-cleavage data for 34 variants are collected here from the RNAGym collection of RNA variant scans (doi:10.1093/nar/gkz1192).

The data set covers variants of B1. The experiment in a line: self-cleavage, relative activity (ratio to wild type); higher = more cleavage; in vitro, sequencing. An outline of the steps:
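After error-prone PCR and barcoding, CPEB3 ribozyme mutant libraries were transcribed with T7 RNA polymerase at 37°C for 5 hours, then given 15 min with DNase I before an EDTA stop, and they cleaved during both steps. Reverse transcription with template switching preceded Illumina sequencing. Relative activity divides a variant's cleaved/total read fraction by the unmutated ribozyme's. At least 5 reads were required per variant, and three batches were averaged.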
Consider UAACAGGGGGCCACAGCAGAAGCGUUCACGUCGCACCCCCUGUCUGAUUCUGGUGGAUCUGCGAAUUCUGCUGUAUAUCUC [G36C A45U A56G], for which the self-cleavage is 0.17.
Then UAACAGGGGGCCACAGCAGAAGCGUUCACGUCGCAGUCCCUGUCGGAUUCUUGUGAACCUGCGAAUUCGGCUGUAUAUCUC [C37U A45G G52U U58C U69G], with 0.11; and UAACAGGGGGCCACAGCAGAAGCGUUCACGUCGCAGGCCCUGUCAGAUUCUGGAGAAUCUGCGAAUUCCGUUGUAUACCUG [C37G U54A U69C C71U U78C C81G], with 0.23; and UAACAGGGGGCCACAGCAGAAGCGUUCACGUCGCAGGCCCUGUCAGAUUCUGGUGAAUCUGCGAAUUCUGCUGUGUAUCGC [C37G A75G U80G], with 0.52.
Take UAACAGGGGGCCACAGCAGAAGCGUUCACGUCGCAGACCCUGUCAGAUUCUGGUGAAUCUGCGAAUUCUGCUGAGUACCUC [C37A U74A A75G U78C]: the self-cleavage turned out to be 0.54.
Then UAACAGGGGGCCACAGCAGAAGCGUUCACGUCGCAGUCCCUGUCAGAUCCUGGUGAAUCUGCGAAUCCUGCUGUAUAUCUC [C37U U49C U67C], with 0.11.
Next, UAACAGGGGGCCACAGCAGAAGCGUUCACGUCGCAACCCCUGUCAGAUUCCUGUGAAUCUGCGGAUUCUGCUGUAUGUCUC [G36A U51C G52U A64G A77G]: 0.14; UAACAGGGGGCCACAGCAGAAGCGUUCACGUCGCAGUCCCUGUCAGAUUCUUGUGAACCUGCGAAUUCGGCUGUAUAUCUC [C37U G52U U58C U69G]: 0.14.
Then UAACAGGGGGCCACAGCAGAAGCGUUCACGUCGCAGUCCCUGUCAGACUCUGGUGAAUCAGCGAAUUCUGCUGUAUAUCUC [C37U U48C U60A], with 0.18; and UAACAGGGGGCCACAGCAGAAGCGUUCACGUCGCAGUCCCUGCCAUAUUCUGGUGGAUCUGCGAGUUCUGCUGUAUAUCUC [C37U U43C G46U A56G A65G], with 0.13.
Consider UAACAGGGGGCCACAGCAGAAGCGUUCACGUCGCAACCCCUGUCAGAUUCUGGUGAACCUACGAAUUCUGCUGUAUAUCUC [G36A U58C G61A], for which the self-cleavage came to 0.11.
As for UAACAGGGGGCCACAGCAGAAGCGUUCACGUCGCAGUCCCUGCCAGAAUCUGGUGAAUCUGCGAAUUCUGCUGUAUAUCUC [C37U U43C U48A], the self-cleavage is 0.12.
Next, UAACAGGGGGCCACAGCAGAAGCGUUCACGUCGCAGGCCCUGCCAGAUUCUGGUGAAUCUGCGAAUUCUGCUGUAUAUUUC [C37G U43C C79U]: 0.27; UAACAGGGGGCCACAGCAGAAGCGUUCACGUCGCAGUCCCUGUCAGGCUCUGGUGAAUCUGCGAAUUCUGCUGUAUAUCUC [C37U A47G U48C]: 0.18; UAACAGGGGGCCACAGCAGAAGCGUUCACGUCGCAGUCCCUGUCAGAUUCUGGUGAUUCUGCGAAUUCUGCUGAAUAUCUC [C37U A57U U74A]: 0.4.
Next, UAACAGGGGGCCACAGCAGAAGCGUUCACGUCGCAUCCCCUGUCAGAUUCUGGUGAAUCUGCGAAUUCUGCAGUAUUUCUC [G36U U72A A77U]: 0.09; UAACAGGGGGCCACAGCAGAAGCGUUCACGUCGCACCCCCUGCCAGAUUCUGGGGAAUCUGCGAAUGCUGCUGUACAUCUC [G36C U43C U54G U67G U76C]: 0.11.
For UAACAGGGGGCCACAGCAGAAGCGUUCACGUCGCAACCCCUGGCAGAUUCUGGUGAACCUGCGAAUUCUGCUGUAUAUCUC [G36A U43G U58C], the self-cleavage stood at 0.05.
Regarding UAACAGGGGGCCACAGCAGAAGCGUUCACGUCGCAGGCCCUGUCAGAUCCUGGUGAACCUGCGAAUUCUGCUGUAUAUCUC [C37G U49C U58C], the self-cleavage is 0.07.
Then UAACAGGGGGCCACAGCAGAAGCGUUCACGUCGCAGUCCCUGUCCGAUUCUGGUGAAUCUGCGAAUUCUGCAGUAUAUCUC [C37U A45C U72A], with 0.09; and UAACAGGGGGCCACAGCAGAAGCGUUCACGUCGCACCCCCCGUCAUGUUCUGGUGAAUCUGCGAAUUCUGCUGUAUAUCUC [G36C U41C G46U A47G], with 0.08; and UAACAGGGGGCCACAGCAGAAGCGUUCACGUCGCAGUCCCUGCCAGAUUCUGGUGUAUCUGCGGAUUCUGCUGUAUAUCCC [C37U U43C A56U A64G U80C], with 0.15.
Next, UAACAGGGGGCCACAGCAGAAGCGUUCACGUCGCAUCCCUUGUCCGAUUCUGGUGAAUCUGCGAAUUCUGCUGUAUAUCUC [G36U C40U A45C]: 0.27.
Then UAACAGGGGGCCACAGCAGAAGCGUUCACGUCGCAGUCCCUGUCAGAUUCUGGUGAAUCUGCGAUUUCUGCUGUAUACCUC [C37U A65U U78C], with 0.05; and UAACAGGGGGCCACAGCAGAAGCGUUCACGUCGCAACCCCUGUCAGAUUCUGGUGAAUCUGCGAAUUCUGCUGUGUACCUC [G36A A75G U78C], with 0.07; and UAACAGGGGGCCACAGCAGAAGCGUUCACGUCGCAGUCCCUGUCACAUUCUGGUGAAUCUGCGAAUUCUGCUGUACAUCUC [C37U G46C U76C], with 0.17.
For the variant UAACAGGGGGCCACAGCAGAAGCGUUCACGUCGCAACCCCUGCCAGAUUCUGGAGAAUCUGCGAAUUCUGCUGUAUAUCUC [G36A U43C U54A], the self-cleavage turned out to be 0.11.
For UAACAGGGGGCCACAGCAGAAGCGUUCACGUCGCAGUCCCUGCCAGAUUCUGGUGAAUCUGCGAAUUCUGCUGUAUACCUC [C37U U43C U78C], the self-cleavage was 0.13.
For UAACAGGGGGCCACAGCAGAAGCGUUCACGUCGCAGUCCCUGUCAGAUUCUGGUGUAUCUGCGAAUUCUGCUGUAUAUCUA [C37U A56U C81A], the self-cleavage was determined as 0.39.
Next, UAACAGGGGGCCACAGCAGAAGCGUUCACGUCGCAACCCCUGUCAGAUUCGGGUGAAUCUGCGAAUUCUGCUGUAUAUCAC [G36A U51G U80A]: 0.28; UAACAGGGGGCCACAGCAGAAGCGUUCACGUCGCAGUCCCUGUCAGUUUCUGGUGAAUCUGCGAAAUCUGCUGUAUAUCUC [C37U A47U U66A]: 0.1; UAACAGGGGGCCACAGCAGAAGCGUUCACGUCGCAGGCCCUGUCAGAUUCUGGUGGAUCUGCGAAUUCUGCAGUAUAUCUC [C37G A56G U72A]: 0.28.
As to UAACAGGGGGCCACAGCAGAAGCGUUCACGUCGCAGACCCUGACAGAUUCCGGUGAAUCUGCGAAUUCUGCUGUAUAUCUC [C37A U43A U51C], the self-cleavage was determined as 0.07.
Then UAACAGGGGGCCACAGCAGAAGCGUUCACGUCGCAUCCCCUGUAAGAUUCUGUUGAAUCUGCGAGUUCUGCUGUAUAUCUC [G36U C44A G53U A65G], with 0.1.
